Drawing on PubChem BioAssay AID488969 (Vanderbilt High Throughput Screening Facility, 2010), this text covers z-score for 71 compounds.

Molecules are shown by their SMILES. Over roughly 110,000 compounds, “z-score” has its median near -0.1; the highest 2% begin near 2. The list shows a part of the results. The source made the active and inactive calls.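 The calls were made as follows: active = z-score in the third read window above 3 or below -3; inactive = the rest.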

The test has as its target Metabotropic glutamate receptor 8 (Rattus norvegicus) (UniProt P70579). In words: rat mGluR8 modulators via GIRK flux, primary screen, cell-based, thallium flux, HTS (AID 488969). The following applies: HEK293 rat mGluR8, GIRK (G protein-gated inwardly rectifying potassium channel) thallium flux, FluoZin2; at 10 µM; stronger effect = higher value; submaximal glutamate (EC20) added with thallium.
UniProt P70579, sequence (P70579 whole entry, looked up): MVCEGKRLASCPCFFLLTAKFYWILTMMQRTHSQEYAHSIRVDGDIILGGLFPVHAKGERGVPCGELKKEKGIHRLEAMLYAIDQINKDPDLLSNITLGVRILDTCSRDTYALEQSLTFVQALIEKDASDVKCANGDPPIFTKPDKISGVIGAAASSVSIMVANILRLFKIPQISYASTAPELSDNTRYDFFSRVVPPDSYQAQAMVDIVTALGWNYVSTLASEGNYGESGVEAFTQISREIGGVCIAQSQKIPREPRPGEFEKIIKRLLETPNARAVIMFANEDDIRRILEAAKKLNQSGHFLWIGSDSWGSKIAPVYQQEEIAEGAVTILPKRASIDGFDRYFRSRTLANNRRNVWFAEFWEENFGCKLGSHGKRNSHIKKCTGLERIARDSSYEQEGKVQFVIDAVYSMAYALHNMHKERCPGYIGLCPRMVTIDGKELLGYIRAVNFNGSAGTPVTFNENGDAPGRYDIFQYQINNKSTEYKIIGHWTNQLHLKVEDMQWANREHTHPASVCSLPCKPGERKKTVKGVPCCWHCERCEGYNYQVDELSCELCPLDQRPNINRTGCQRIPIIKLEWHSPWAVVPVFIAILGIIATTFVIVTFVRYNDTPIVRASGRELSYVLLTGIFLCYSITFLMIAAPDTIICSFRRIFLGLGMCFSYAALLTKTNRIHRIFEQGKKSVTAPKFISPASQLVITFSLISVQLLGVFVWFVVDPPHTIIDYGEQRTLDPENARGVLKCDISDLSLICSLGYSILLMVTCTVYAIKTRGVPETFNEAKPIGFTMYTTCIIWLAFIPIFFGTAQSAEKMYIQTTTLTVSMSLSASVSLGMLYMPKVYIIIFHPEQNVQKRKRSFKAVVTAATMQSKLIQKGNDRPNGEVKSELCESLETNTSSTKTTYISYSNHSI
`O=C1c2ccccc2C(=O)N1Cc1cc(-c2ccccc2Cl)no1` showed a z-score of 0.00769.

Compound `O=C(NNc1c2ccccc2nc2ccccc12)c1ccc(O)cc1O` returned a z-score of 0.0188. The result for `COc1ccc(C(=O)CCNc2ccc(C)c(Cl)c2)cc1` reads -0.153. For `CCN(CC(=O)NC)S(=O)(=O)c1ccc(C)cc1`, the z-score is -0.267. The result for `CN(CCOc1ccc(-c2ccn(S(=O)(=O)c3cccc4ccccc34)n2)cc1)c1ccccn1` reads 0.0221. As for `CC1CC(C)CN(c2ccc(-n3cnnn3)cc2[N+](=O)[O-])C1` (stereo unspecified), the z-score was found to be 0.222.

In the case of `CCOC(=O)COc1ccc(/C=C2/SC(=Nc3ccccc3)N(Cc3cccnc3)C2=O)cc1OC`, the z-score is -0.115. For the compound `COc1ccc(CNC(=O)/C=C/c2cc3c(cc2Br)OCO3)cc1`, the z-score is -0.217. `O=S(=O)(NC1CCCCC1)c1ccc(Cl)s1` showed a z-score of -0.156. The result for `CC(c1ccccc1)N1C(=O)c2ccccc2C1O` (stereo unspecified) reads -0.0425.

As for `CSc1nc2sc3c(c2c2nnnn12)CC(C)(C)OC3`, the z-score was found to be 0.065. As for `Oc1ccc(CNc2ccccc2O)cc1`, the z-score was -0.105.

`COc1ccc(N2CCN(C(CNC(=O)C(=O)NCCc3c[nH]c4ccccc34)c3ccco3)CC2)cc1` (stereo unspecified) yielded a z-score of 0.149.

Turning to `COc1cccc(C2C(C(=O)Nc3ccccc3)=C(C)N=c3s/c(=C/c4ccc(OCC(=O)O)cc4)c(=O)n32)c1` (stereo unspecified), the z-score was 0.0375. Under `Nc1[nH]n(-c2ccccc2)c(=O)c1N=Nc1ccccc1[N+](=O)[O-]` stands -0.139; under `O=C(Oc1ccccc1OC(=O)N1CCOCC1)N1CCOCC1`, -0.307; under `O=C(c1ccc(S(=O)(=O)N2CCCC2)cc1)N1CCN(Cc2ccc3c(c2)OCO3)CC1`, 0.0297.

Consider `O=C(COc1ccccc1)N1CCN(S(=O)(=O)Cc2ccccc2)CC1`, for which the z-score stood at 0.0406. The result for `Cc1ccc(S(=O)(=O)CCc2nnc(N)s2)cc1` reads 0.028.

`CCCC1=[N+](CC)CCn2c(C)ccc21` returned a z-score of -0.263. The result for `Cc1ccc(C)c(N2CCN(C(=O)CNS(=O)(=O)c3cccs3)CC2)c1` reads 0.0118.

As for `CCOc1cc(C(=O)OCC(=O)Nc2ncc(Cl)c(C)c2Cl)ccc1OCC(=O)N1CCOCC1`, the z-score was -0.168. Under `COC(=O)c1[nH]c2cc(OC)ccc2c1NC(=O)CN1CCC(C(N)=O)(N2CCCCC2)CC1` stands 0.0409; under `CCc1ccc(NC(=O)COC(=O)/C(=C/c2ccccc2OC)c2ccccc2)cc1`, -0.145. Under `COc1ccccc1OCCCn1c(C)c(C#N)c2ccccc21` stands -0.455; under `CCC1SC(N)=NC1=O` (stereo unspecified), 0.0857; under `CCN(CC)CCNC(=O)C(C)c1nn(CC)c(=O)c2ccccc12` (stereo unspecified), -0.00501. The result for `COc1nccnc1NS(=O)(=O)c1ccc(N=Cc2c(C)[nH]n(-c3ccc(C)c(C)c3)c2=O)cc1` reads 1.41; that for `CC(C)CC(=O)Nc1ncnc2c1C(=O)CC(C)(C)C2`, 0.108. Consider `O=c1c2ccccc2n2cnnc2n1-c1ccccc1`, for which the z-score is 0.114.

The compound `COc1cccc(CNn2cnnc2)c1OCc1ccc(F)cc1` gave a z-score of -0.661. `Cc1ccc(CNC(=O)C(=O)NCC2CCCO2)cc1` (stereo unspecified) came in with a z-score of 0.351. Under `COc1ccc(C(Nc2ccccn2)c2c(NC(=O)c3ccco3)sc(C)c2C)cc1` (stereo unspecified) stands 0.249.

Compound `Cn1c(-c2ccc3nc(N)sc3c2)nc2cc(N)ccc21` came in with a z-score of 0.495. `NC1=NC(=O)C(CC(=O)c2ccc(Cl)cc2)S1` (stereo unspecified) yielded a z-score of 0.0574.

Consider `Cc1ccc2nc(SCC(=O)NC3CCCc4ccccc43)[nH]c2c1` (stereo unspecified), for which the z-score came out at 0.164.

On to `N#C/C(=C/c1ccc(N2CCCCCC2)o1)c1ccc(F)cc1`, for which the z-score came to 0.567. The result for `CCN(CC)C(=O)CSc1ncnc2c1nnn2-c1ccc(OC)cc1` reads -0.262; that for `O=C1CC(c2ccc(F)cc2)Cc2nc(N3CCOCC3)ncc21` (stereo unspecified), -0.0725. The result for `C=CCNC(=S)NNC(=O)c1ccc2c(c1)OCO2` reads -0.78; that for `O=C(NCCc1ccccn1)c1ccc(S(=O)(=O)N2CCCCCC2)cc1`, -0.0566; that for `Cc1ccc(N2C(N)=NC(N)=NC23CCCC3)c(C)c1`, 0.0847. For `COc1ccc(OC)c(C(=O)C2COC(=O)C2)c1` (stereo unspecified), the z-score was 0.255. Under `Cc1cc(C(F)F)n2nc(C(=O)Nc3sc4c(c3C(N)=O)CCC4)nc2n1` stands -0.336; under `COc1cccc2cc(/C(C)=N/Nc3nc(-c4cc(C)ccc4C)cs3)c(=O)oc12`, -0.291; under `COC(=O)c1cc(C(C)=O)n2ccccc12`, -0.393. For the compound `Cc1cccc(C)c1NC(=O)N1C(C(=O)O)CSC1C(=O)O` (stereo unspecified), the z-score is 0.243.

`CCOc1cc(C2C(C#N)=C(N)Oc3n[nH]c(CC)c32)ccc1OCCN1CCOCC1` (stereo unspecified) registered a z-score of 0.000546.

Take `CCC(CC)C(=O)Nc1cc(C(=O)OC)ccc1C(=O)OC`: the z-score came out at 0.417. The result for `Cc1ccc2nc(-c3ccc(NC(=O)C4CCCO4)cc3)[nH]c2c1` (stereo unspecified) reads -0.257; that for `Fc1cnc(N2CCOCC2)nc1NCc1ccccc1`, 0.0946; that for `COc1ccc(Oc2cc(C(F)(F)F)cnc2C(N)=O)cc1`, -0.0956.

`COc1cccc(-n2c(SCC(=O)NCCC3=CCCCC3)nc3n[nH]c(C)c3c2=N)c1`: the z-score was active: 8.62.

For the compound `CCOC(=O)c1c(C)c(C(=O)NCCc2ccc(S(N)(=O)=O)cc2)c(C)n1CC`, the z-score is -0.0818. Under `O=C(O)c1ccc(N=NN2CCOCC2)cc1` stands 0.0304; under `Cc1nc2ccccc2n1S(=O)(=O)c1ccc(Br)cc1`, 0.00472; under `Cc1cccc(OCC(O)Cn2c(-n3nc(C)cc3C)nc3c2c(=O)[nH]c(=O)n3C)c1` (stereo unspecified), -0.0623.

`COCCNCCOCCOc1cccc(OC)c1`: the z-score is -0.936. Under `COC(=O)c1c(C(=O)OC)c2cc(C(=O)c3ccccc3)ccn2c1Cl` stands -1.08. Under `O=S(=O)(c1ccc(Cl)cc1)N1CCSC1c1ccco1` (stereo unspecified) stands -1.54; under `CC(C)(C)c1ccc(C(=O)N/C(=C/c2cccs2)C(=O)NCc2ccco2)cc1`, 0.217. Take `N#C/C(=N\Nc1ccc(Cl)cc1)C(=O)c1ccccc1`: the z-score was active: -3.03.

`CCc1cc2cc(C(=O)N3CCN(Cc4ccccc4)CC3)sc2s1` returned a z-score of 1.1. The result for `COCC(=O)N(CCc1ccc(OC)cc1)Cc1nc2ccccc2c(=O)[nH]1` reads -0.025. The result for `Cc1cc(NC(=O)CCC(=O)N(CC(=O)NC2CCCC2)c2cccc(C)c2C)no1` reads -0.25; that for `c1ccc(OCCCCn2cnc3ccccc32)cc1`, -0.677. The result for `COc1ccc(C(=O)NC(Nc2ccc(C)cc2)C(Cl)(Cl)Cl)cc1` (stereo unspecified) reads -0.529. The compound `O=C(CSc1nc(-c2ccc(F)cc2)cs1)N1CCc2ccccc21` came in with a z-score of -0.119.

In turn, `C=CCn1c(=O)[nH]c2cc(C(=O)N3CCN(c4cc(C)ccc4C)CC3)ccc2c1=O` registered a z-score of -0.0336. Under `COc1ccc(CCN2C(=O)C3C4CC(C5C(C(=O)O)=NOC45)C3C2=O)cc1OC` (stereo unspecified) stands 1.24; under `CCN1CCN(c2nc(Nc3ccccc3)nc(N)c2[N+](=O)[O-])CC1`, -0.154.
